In all, about 91,000 compounds went through this assay and about 130 (0.14%) were called active. The shares of active, inactive and inconclusive entries below differ from those in the screen. Calls follow the shape of the dose curve; as a rule, active = well fitted inhibition curve with a large enough effect; inconclusive = small, poorly fitted or top-dose-only effect; inactive = flat fitted curve, though single readings scatter. Where the call is inconclusive, the potency comes from a doubtful curve fit.
The compounds below were run on Uracil-DNA glycosylase (assay: Primary qHTS assay for inhibitors of Activation Induced Cytidine Deaminase (AID): UDG Counterscreen signal). Conditions: FRET deamination/UDG coupled assay, UDG read, 4 h; series mostly up to 115 µM.
`O=C(CSc1nc(=O)n(Cc2ccncc2)c2c1CCC2)Nc1cccc(F)c1` was tested, and the Potency was inconclusive: 89.1 µM [inhibitor, single point].
In the case of `COc1ccc(NC(=O)Cn2c(-c3ccc(F)cc3)cc(C(C)=O)c2C)c(OC)c1`, the Potency is reported as inconclusive: 89.1 µM [inhibitor, single point].
`Cc1cc(C)c2c(=O)c3c(oc2c1)C(=O)N(CCCOC(C)C)C3c1ccccc1F` (centres undefined) was tested, and the Potency was inconclusive: 100 µM [inhibitor, single point].
`COc1ccc(Nc2nnc(-c3ccc(C)c(S(N)(=O)=O)c3)c3ccccc23)cc1` was tested, and the Potency was inconclusive: 89.1 µM [inhibitor, single point].
In the case of `NC(=O)c1ccc(CN(C(=O)Cc2cccc(C(F)(F)F)c2)C2CC2)cc1`, the Potency is reported as “inactive”.
`Cc1oc(-c2ccc(Cl)cc2)nc1Cn1c(=O)cc(-c2ccccc2)c2c(C)nn(C)c21` was tested, and the Potency was inconclusive: 100 µM [inhibitor, single point].
For `Cc1cccc(NC(=O)CSc2nc(C)c(Cc3ccccc3)c(=O)[nH]2)c1`, the Potency was “inactive”.
With `COc1ccc(NC(=O)Nc2nnc(N(C)C3CCCCC3)s2)c(OC)c1` the Potency was inconclusive: 70.8 µM [inhibitor, partial curve, poor fit].
With `COc1ccc(C2=Nc3ccc(C)cc3NC(c3ccc(Cl)cc3)=N2)cc1` the Potency was inconclusive: 39.8 µM [inhibitor, single point].
For `Cc1ccc(NC(=O)CC2Nc3cccc4cccc(c34)NC2=O)cc1` (centres undefined), the Potency was inconclusive: 50.1 µM [inhibitor, partial curve, poor fit].
With `Cc1ccc2cccc(NC(=O)c3ccc(C)c(C)c3)c2n1` the Potency was inconclusive: 89.1 µM [inhibitor, single point].
For `CCOC(=O)c1c(S(=O)(=O)NCC(=O)N2CCN(c3ccccc3OC)CC2)c(C)n(C)c1C`, the Potency was inconclusive: 56.2 µM [inhibitor, partial curve, poor fit].
With `COCCNC(=O)NC(=O)CN(C)Cc1cccs1` the Potency was “inactive”.
With `COc1cccc(NC(=O)c2cn(C3CCCCC3)c(=O)c3c2c2ccccc2n3C)c1` the Potency was inconclusive: 70.8 µM [inhibitor, partial curve, poor fit].
In the case of `COc1ccc(C(=O)NCC(c2cccs2)S(=O)(=O)c2ccc(C)cc2)cc1` (centres undefined), the Potency is reported as inconclusive: 89.1 µM [inhibitor, single point].
In the case of `CNC(=O)c1ccc(CN(C)CCc2cccs2)cc1`, the Potency is reported as “inactive”.
In the case of `COc1ccc(-c2cc(C(=O)Nc3c(C)nn(Cc4ccc(F)cc4)c3C)no2)cc1OC`, the Potency is reported as inconclusive: 100 µM [inhibitor, single point].
In the case of `COc1ccccc1OCC(=O)N1CCC(c2nc3ccccc3o2)CC1`, the Potency is reported as “inactive”.
For `Cc1c(Cl)cccc1NC(c1ccc(F)cc1)c1nnc(-c2ccccc2)o1` (centres undefined), the Potency was inconclusive: 56.2 µM [inhibitor, partial curve, poor fit].
With `O=C(Nc1cccnc1)c1cc(-c2ccc(Cl)cc2)on1` the Potency was inconclusive: 89.1 µM [inhibitor, single point].
`Fc1ccc(C(NCCc2ccccc2)c2nnc(-c3ccccc3Cl)o2)cc1` (centres undefined) was tested, and the Potency was inconclusive: 89.1 µM [inhibitor, single point].
`Cc1ccc(C)c(Nc2nc(-c3ccc(-c4ccccc4)cc3)cs2)c1` was tested, and the Potency was “inactive”.
For `COC(=O)c1ccc(OCC(=O)c2ccc3c(c2)OCCO3)cc1`, the Potency was “inactive”.
With `Cc1ccc([N+](=O)[O-])cc1N=Cc1ccc(C#Cc2ccccc2)cc1` the Potency was “inactive”.
For `CCCOc1ccc(OC(=O)c2cn(-c3ccc(OC)cc3)c(=O)c3ccccc23)cc1`, the Potency was inconclusive: 89.1 µM [inhibitor, single point].
For `CCCCn1c(=O)[nH]c(=O)c2c1nc(CSc1nnnn1C)n2CCC`, the Potency was inconclusive: 89.1 µM [inhibitor, single point].
With `COc1cccc(NC(=O)Cn2c(-c3nonc3N)nc3ccccc32)c1` the Potency was inconclusive: 100 µM [inhibitor, partial curve, poor fit].
`CCOc1ccc(/C=C/c2nc(C#N)c(N3CCC(C)CC3)o2)cc1` was tested, and the Potency was inconclusive: 89.1 µM [inhibitor, single point].
In the case of `CC(C)CCC(CCNC1CCC(C)CC1)C1CCOC(C)(C)C1` (centres undefined), the Potency is reported as “inactive”.
In the case of `Cc1ccccc1N1CC(c2nc3ccccc3n2Cc2ccc(Br)cc2)CC1=O` (centres undefined), the Potency is reported as inconclusive: 89.1 µM [inhibitor, single point].
For `Cc1c(Cl)cccc1-n1nc(C)c2c(C)cc(=O)n(CC(=O)N3CCCc4ccccc43)c21`, the Potency was inconclusive: 89.1 µM [inhibitor, single point].
For `O=C(Nc1cccc(Cl)c1)C1CCN(S(=O)(=O)Cc2ccccc2)CC1`, the Potency was “inactive”.
`COc1ccc(Cc2nc3ccc(C(=O)NCCc4ccc(OC)c(OC)c4)cc3o2)cc1` was tested, and the Potency was inconclusive: 89.1 µM [inhibitor, single point].
In the case of `O=C(CSc1nc2ccccc2o1)N1CCN(C(=O)C2CC2)CC1`, the Potency is reported as “inactive”.
In the case of `Cc1ccc2oc(-c3cccc(NC(=O)c4ccc(N5CCC(C)CC5)c([N+](=O)[O-])c4)c3)nc2c1`, the Potency is reported as inconclusive: 79.4 µM [inhibitor, partial curve, poor fit].
With `Cc1oc(-c2ccc(Cl)cc2)nc1CN1CCCC(C(=O)NCCc2ccccc2)C1` (centres undefined) the Potency was inconclusive: 89.1 µM [inhibitor, single point].
In the case of `COc1ccc(-c2nc(C)c(CCNS(=O)(=O)c3ccc(F)cc3)s2)cc1OC`, the Potency is reported as “inactive”.
In the case of `O=C(Nc1ccc(F)cc1)c1ccc(S(=O)(=O)C2CCS(=O)(=O)C2)cc1` (centres undefined), the Potency is reported as inconclusive: 100 µM [inhibitor, single point].
`CCN(Cc1nc(-c2ccc(OC)cc2)oc1C)S(=O)(=O)c1ccc(C)cc1` was tested, and the Potency was inconclusive: 89.1 µM [inhibitor, single point].
With `O=C(Nc1ccc(C(F)(F)F)cc1)C1CC=CCC1` (centres undefined) the Potency was “inactive”.
`COc1cccc(CNC(=O)c2oc3c(c2C)-c2nn(Cc4cccc(Cl)c4)cc2CC3)c1OC` was tested, and the Potency was “inactive”.
In the case of `CN(C)CCCn1c(-c2cccc(OC(F)(F)C(F)F)c2)n[nH]c1=S`, the Potency is reported as “inactive”.
With `CC(=O)Nc1ccc(NC(=O)c2cc(-c3ccco3)nc3ccccc23)cc1` the Potency was “inactive”.
With `Cc1ccc(CCNC(=O)CS(=O)Cc2nc(-c3ccccc3C)oc2C)cc1` (centres undefined) the Potency was inconclusive: 79.4 µM [inhibitor, partial curve, poor fit].
In the case of `COc1ccc(-c2c(C)c3cc(OC(C)=O)ccc3oc2=O)cc1OC`, the Potency is reported as inconclusive: 50.1 µM [inhibitor, partial curve, poor fit].
With `O=c1onc2n1-c1cc(Br)ccc1OC2` the Potency was “inactive”.
In the case of `CCCN1CCC(N(C)C(=O)Nc2ccc(F)cc2F)CC1`, the Potency is reported as “inactive”.
For `Cc1c(C(=O)N2CCCC2)oc2c1-c1nn(CC(=O)NCCCOC(C)C)cc1CC2`, the Potency was inconclusive: 28.2 µM [inhibitor, full curve, poor fit].
`O=C(c1cccn1-c1nnc(N2CCCC2)s1)N1CCN(c2ccccc2)CC1` was tested, and the Potency was inconclusive: 79.4 µM [inhibitor, single point].
`CCCCCCCCCCCCS(=O)CC(O)CCl` (centres undefined) was tested, and the Potency was “inactive”.
In the case of `COc1ccc(CNc2nc(NCc3ccc(OC)cc3)n(S(=O)(=O)c3ccccc3)n2)cc1`, the Potency is reported as “inactive”.
`CC(C)(C)c1ccc(C(=O)NCCc2csc3nc(-c4ccccc4F)nn23)cc1` was tested, and the Potency was inconclusive: 89.1 µM [inhibitor, partial curve, poor fit].
`Cc1cccc(C)c1NC(=O)Cn1c(=O)n(Cc2ccccc2)c(=O)c2c(C)c(C(=O)N(C)C)sc21` was tested, and the Potency was inconclusive: 89.1 µM [inhibitor, single point].
In the case of `COC(=O)C1CCN(C(=O)COC(=O)c2cccc3c(=O)c(C)c(-c4ccccc4)oc23)CC1`, the Potency is reported as “inactive”.
`COCCn1c(SCc2ccc(C#N)cc2)nnc1-c1ccc(Cl)cc1` was tested, and the Potency was “inactive”.
For `Cn1nnc2c(N3CCN(c4ccccc4)CC3)ncnc21`, the Potency was inconclusive: 79.4 µM [inhibitor, partial curve, poor fit].
For `CCOc1ccc(N(CC)S(=O)(=O)N2CCCC(C(=O)Nc3cc(Cl)ccc3C)C2)cc1` (centres undefined), the Potency was inconclusive: 79.4 µM [inhibitor, partial curve, poor fit].
In the case of `CC(C)COc1ccc(C2=NC(c3ccncc3)=Nc3ccc(F)cc3N2)cc1`, the Potency is reported as “inactive”.
With `COc1cc(/C=C/C(=O)c2ccc(OCC#N)cc2)ccc1OCCC(C)C` the Potency was “inactive”.
In the case of `Cc1ccc2nc(/C(C#N)=C/c3ccco3)[nH]c2c1`, the Potency is reported as “inactive”.
With `Cc1ccccc1-c1nc(CN2CCC(C(=O)NCCc3ccccc3)CC2)c(C)o1` the Potency was inconclusive: 89.1 µM [inhibitor, single point].
With `O=C(COC(=O)C12CC3CC(CC(C3)C1)C2)Nc1ccc2c(c1)OCO2` the Potency was inconclusive: 79.4 µM [inhibitor, single point].
With `Cc1oc(-c2ccccc2)nc1CN1CCN(C(=O)c2ccco2)CC1` the Potency was inconclusive: 89.1 µM [inhibitor, single point].
`O=C(Cn1c(=O)n(Cc2ccc(Cl)cc2)c(=O)c2cccnc21)Nc1ccccc1C(F)(F)F` was tested, and the Potency was inconclusive: 89.1 µM [inhibitor, single point].
In the case of `N#Cc1nc(C2CC2)oc1N1CCN(Cc2cccc(F)c2)CC1`, the Potency is reported as “inactive”.
In the case of `NS(=O)(=O)c1ccc(CCNc2nccn(-c3cccc(C(F)(F)F)c3)c2=O)cc1`, the Potency is reported as inconclusive: 89.1 µM [inhibitor, single point].
For `Cc1cccc(OCC(=O)Nc2nc3c(s2)CC(C(C)(C)C)CC3)c1C` (centres undefined), the Potency was inconclusive: 89.1 µM [inhibitor, single point].
For `CCCCc1cnc2c(c1SCC(=O)NCC1CCCO1)c(=O)n(C)c(=O)n2C` (centres undefined), the Potency was “inactive”.
`CCCN(CCC)CCNC(=O)c1sc2nc3n(c(=O)c2c1C)CCCCC3` was tested, and the Potency was inconclusive: 89.1 µM [inhibitor, single point].

Source: PubChem BioAssay AID1347430 (National Center for Advancing Translational Sciences (NCATS), 2020)
Also: nearly all actives have a fitted effect of over 65% in size.
Potency is read from the fitted curve at half-maximal effect; tags tell the direction and shape of the fitted curve.
